Results taken from article PMC4336329 (PLoS ONE, 2015).
About 14,000 (4.5%) of roughly 310,000 compounds showed an effect of 50% or more. The effect is printed as a negative number. This is one part of the list.

target: human ether-à-go-go-related gene (hERG) potassium channel (human, UniProt Q12809); experiment: primary screen, population patch clamp on CHO cells stably expressing hERG
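Also: peak tail current of the secondary pulse compared with the same well before compound.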

Chain of human ether-à-go-go-related gene (hERG) potassium channel (Q12809 whole entry, looked up): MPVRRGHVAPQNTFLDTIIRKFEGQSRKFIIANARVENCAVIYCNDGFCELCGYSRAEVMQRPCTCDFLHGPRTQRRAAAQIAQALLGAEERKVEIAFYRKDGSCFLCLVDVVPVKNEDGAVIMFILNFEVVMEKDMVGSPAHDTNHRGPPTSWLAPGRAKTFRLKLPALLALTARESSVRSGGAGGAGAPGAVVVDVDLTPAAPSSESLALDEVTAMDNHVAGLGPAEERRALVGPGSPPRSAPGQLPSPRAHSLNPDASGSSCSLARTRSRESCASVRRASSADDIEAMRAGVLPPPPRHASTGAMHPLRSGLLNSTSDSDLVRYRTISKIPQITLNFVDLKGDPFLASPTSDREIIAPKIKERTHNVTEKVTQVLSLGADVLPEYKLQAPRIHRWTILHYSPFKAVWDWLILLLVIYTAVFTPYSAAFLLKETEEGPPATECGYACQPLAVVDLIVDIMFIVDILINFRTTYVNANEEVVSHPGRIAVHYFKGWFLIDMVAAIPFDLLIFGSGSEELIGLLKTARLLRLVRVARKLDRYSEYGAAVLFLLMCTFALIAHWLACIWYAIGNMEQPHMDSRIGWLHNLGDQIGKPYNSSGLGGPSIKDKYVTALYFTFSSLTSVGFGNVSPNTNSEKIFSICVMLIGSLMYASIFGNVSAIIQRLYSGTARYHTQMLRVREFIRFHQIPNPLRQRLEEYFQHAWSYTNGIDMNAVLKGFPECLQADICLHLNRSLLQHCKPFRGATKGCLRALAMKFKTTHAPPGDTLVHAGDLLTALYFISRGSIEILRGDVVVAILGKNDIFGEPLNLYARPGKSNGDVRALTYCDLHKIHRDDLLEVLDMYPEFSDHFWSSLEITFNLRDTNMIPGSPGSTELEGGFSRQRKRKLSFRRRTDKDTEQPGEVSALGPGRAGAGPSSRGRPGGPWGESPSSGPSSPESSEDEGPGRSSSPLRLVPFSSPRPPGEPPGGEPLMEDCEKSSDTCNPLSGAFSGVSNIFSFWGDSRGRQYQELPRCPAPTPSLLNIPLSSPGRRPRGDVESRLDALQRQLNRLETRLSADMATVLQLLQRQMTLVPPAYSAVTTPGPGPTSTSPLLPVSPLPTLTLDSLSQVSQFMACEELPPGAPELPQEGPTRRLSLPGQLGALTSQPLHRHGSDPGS

Row | Structure (SMILES) | hERG current change (%, negative = inhibition) at 10uM [%]
1 | O=C(/C=C/c1cccc(Cl)c1)c1ccc([N+](=O)[O-])o1 | -2.44
2 | C/C(=N\Nc1nccnc1Cl)c1ccc(Br)cc1 | -5.02
3 | COc1ccc(NC(=O)C(NS(=O)(=O)c2cccs2)C(C)C)cc1Cl (stereo not shown) | -26.2
4 | COc1ccc(CNC(=O)C(=O)NCC2OCCN2S(=O)(=O)c2ccc(F)cc2)cc1 (stereo not shown) | -3.41
5 | Cc1cccc(N2C(=O)CC(N3CCN(c4ccccn4)CC3)C2=O)c1 (stereo not shown) | 11.4
6 | COC(=O)C(O)(c1ccc(NC(=S)NC(=O)c2ccc(Cl)cc2Cl)c(C)c1)C(F)(F)F (stereo not shown) | 6.47
7 | O=C(COC(=O)c1ccc2c(c1)OCCO2)Nc1cccc(S(=O)(=O)N2CCOCC2)c1 | -24.3
8 | CCCN(CC(=O)Nc1ccc(C(N)=O)cc1)CC(=O)Nc1ccc(F)c(F)c1F | 13.3
9 | C#Cc1ccc([C@@H]2C=C(C(=O)O)O[C@H](OCc3ccc(CO)cc3)C2)cc1 | 5.85
10 | CCOc1ccc(C(=O)OCC(=O)N(Cc2ccccc2)Cc2ccccc2)cc1OC | -6.33
11 | Cc1nc(-c2ccc(C(=O)Nc3ccccc3F)cc2)cs1 | 11.8
12 | O=C(NNC(=O)c1ccc(Br)o1)c1csc(N2CCOCC2)n1 | -2.39
13 | Cc1ccc(CN(Cc2cc3cccc(C)c3[nH]c2=O)C(=S)NCCCN(C)C)cc1 | -65
14 | CCC(C(=O)NC1CCCC1)N(C(=O)c1snc(C(N)=O)c1N)c1ccc(C)cc1C (stereo not shown) | -7.83
15 | COCCCN1C(=O)CC(C(=O)OC)=C1C | 16.6
16 | CN(C)C(CNC(=O)Nc1cccc(Cl)c1)c1cccnc1 (stereo not shown) | -7.28
17 | Nc1nonc1C(=O)NCCNc1ccc([N+](=O)[O-])cn1 | -1.34
18 | CCNc1nc(NCC)nc(SCCOC(=O)c2ccccc2)n1 | -39.4
19 | Cc1ccc(C)c(C(=O)NCc2ccncc2)c1 | 0.302
20 | O=C(CCN1C(=O)C2C3C=CC(C3)C2C1=O)NCCc1ccccc1 (stereo not shown) | 8.02
21 | O=C(COC(=O)c1ccc(O)cc1O)Nc1ccc2c(c1)OCCO2 | 5.01
22 | CCc1ccccc1NC(=S)N1CCC(C(=O)c2ccc(F)cc2)CC1 | -63

Row | Structure (SMILES) | hERG current change (%, negative = inhibition) at 10uM [%]
23 | CCn1ncc(C(=O)Nc2ccc(F)cc2)c1C | 1.49
24 | COc1ccccc1C(=O)NNC(=O)c1ccc(NC(=O)CC(C)C)cc1 | 11.9
25 | COC(=O)C1=Nc2ccccc2/C1=C\c1c(O)n(-c2cc(OC)ccc2OC)c(=O)[nH]c1=O | 10.3
26 | CCN(CC(=O)Nc1ccccc1Br)C1CCCCC1 | -10.6
27 | COc1ccccc1NC(=O)Nc1ccccc1C#N | 15.6
28 | COc1ccc(NC(=O)CC(C)CC(=O)NCc2ccc(F)cc2)c(OC)c1 (stereo not shown) | -4.08
29 | CCOC(=O)c1c(NC(=O)CSc2nnnn2CC)sc(C)c1C | 1.27
30 | CCCOc1cc(C)c(S(=O)(=O)NC2CC(C)(C)NC(C)(C)C2)cc1C | -15
31 | Cc1nc2ccccc2c(=O)n1NC(=O)c1ccccc1 | 4.86
32 | O=C(NNC(=O)c1cccs1)c1ccc(Cl)cc1 | 8.63
33 | CCCN1CCC(Oc2cccc(C(=O)NCCc3ccccc3)c2)CC1 | -66
34 | NS(=O)(=O)c1ccc(NC(=O)C2CCCN(S(=O)(=O)c3ccc(F)cc3)C2)cc1 (stereo not shown) | 16.3
35 | O=C1C[C@@H](c2ccccc2)Oc2cc(O)cc(O)c21 | -19.1
36 | Clc1ccc(Cn2ncc3c(NCc4cccnc4)ncnc32)cc1 | -51.2
37 | CS(=O)(=O)c1ccc2nc(NC(=O)CCNC(=O)c3ccccc3Cl)sc2c1 | -3.34
38 | CCOc1ccc(NC(=O)Cn2nnc(C(=O)NCc3ccccc3OC)c2N)cc1 | 8.75
39 | Cc1[nH]c2ccccc2c1C(=O)COc1ccccc1F | 10.7
40 | Cc1ccc(C(=O)Nc2nccs2)s1 | 11.7
41 | Cc1ccc(S(=O)(=O)c2nc(S(C)(=O)=O)sc2N2CCN(C)CC2)cc1 | 11.4
42 | CCOCCCNC(=O)C1CCN(S(=O)(=O)N2CCCC2)CC1 | 25
43 | Cc1nc2sc(-c3ccccc3)cc2c(=O)n1N | 13.4
44 | Cc1ccc2[nH]c(=O)c(CN(Cc3ccco3)C(=O)c3ccncc3)cc2c1 | -43.4

Row | Structure (SMILES) | hERG current change (%, negative = inhibition) at 10uM [%]
45 | O=c1c2c3c(sc2n2c(=S)[nH]nc2n1-c1ccccc1)CCC3 | 12.5
46 | COC(=O)CC1C(=O)NCCN1C(=O)c1ccccc1 (stereo not shown) | 14.3
47 | C=CCc1cccc2cc(C(=O)OCC)c(=O)oc12 | -42.3
48 | CC1(C)CC(N(Cc2ccco2)C(=O)Cc2ccccc2)CCO1 (stereo not shown) | 5.11
49 | CCOc1ccc(CN2CCN(Cc3cccc4c3OCO4)CC2CCO)cc1 (stereo not shown) | -77.4
50 | COC(=O)c1cc(NC(=O)Cc2coc3cc(OC)ccc23)cc(C(=O)OC)c1 | 0.0647
51 | COC(=O)c1ccc(Sc2ccccn2)c([N+](=O)[O-])c1 | -12
52 | N#CCCN(C(=O)COC(=O)c1ccc2c(=O)n3c(nc2c1)CCC3)c1ccc(F)cc1 | -17.2
53 | COC(=O)c1cc(OC)c(OC)cc1-n1cnc2cc(OC)c(OC)cc2c1=O | 19.5
54 | CCC(=Nc1ccccc1OC)C1=C(O)CC(c2ccccc2)CC1=O (stereo not shown) | -0.0823
55 | C=CCN1C(=O)C2(OCCCO2)c2cc(Cl)ccc21 | -0.735
56 | Cc1[nH]c2ccccc2c(=O)c1CN1CCCCC1 | -5.58
57 | CCO[C@@H]1OC(C(=O)NCc2ccccc2)=C[C@H](c2coc3ccccc3c2=O)[C@H]1CCCO | -47.5
58 | Cc1ccc2c(c1)N(Cc1ccncc1)C(=O)C(C)O2 (stereo not shown) | -20.3
59 | CC(Oc1ccc(F)cc1)C(=O)Nc1cc(S(=O)(=O)N2CCOCC2)ccc1N1CCCC1 (stereo not shown) | 13.7
60 | CCn1cc(C(=O)NCCc2ccccc2)c(=O)c2cc(F)c(N3CCN(C)CC3)cc21 | -23.9
61 | COc1cc(OC)cc(C(=O)Nc2ccc(Br)cc2C(=O)c2ccccc2)c1 | 10.5
62 | Cc1ccc2[nH]c(=O)c(CN(C(=O)c3cccc([N+](=O)[O-])c3)C(C)(C)C)cc2c1 | 9.79
63 | CC(C)CN1C2CCCC1CC(NC(=O)c1ccc([N+](=O)[O-])cc1)C2 (stereo not shown) | -78.3
64 | CC(C)c1cc(-c2cc(-c3ccccc3)on2)nc(NC2CCCC2)n1 | 6.4
65 | Cc1cccc(NC(=O)CN(C)C(=O)C2CC2)c1C | 17.6
66 | CCCCCN(C(=O)CCC(=O)OCc1ccc(C(C)(C)C)cc1)c1c(N)n(CCCC)c(=O)[nH]c1=O | -8.09

Row | Structure (SMILES) | hERG current change (%, negative = inhibition) at 10uM [%]
67 | CCOC(=O)/C=C/C(=O)OCC(=O)NCc1ccccc1 | 14.7
68 | Cc1ccc(OCCCC(=O)Nc2ccc(Br)cc2)cc1 | 17.2
69 | Cc1cc(C)c(S(C)(=O)=O)c(=O)[nH]1 | 30.8
70 | COCCN1CCN(C(=O)c2cc(COc3ccc(F)c(F)c3)on2)CC1 | -3.01
71 | O=C(COc1ccc(F)cc1F)NNC(=O)Nc1cccc([N+](=O)[O-])c1 | -9.49
72 | Cc1cc(OCC(=O)N2CCC(C(=O)O)CC2)c2c(C)c(C)c(=O)oc2c1 | 19.4
73 | Cc1cc(C)n2nc(SCC(=O)NC(=O)c3ccccc3Cl)nc2n1 | 0.516
74 | Cc1nc(Nc2ccccc2F)c2oc3ccccc3c2n1 | -10.8
75 | COc1ccccc1S(=O)(=O)Cc1ccc(C(=O)NCCN2CCCCCC2)o1 | 2.78
76 | Cn1ncc(C(=O)N=S(C)(=O)c2ccccc2)c1[N+](=O)[O-] (stereo not shown) | 11.4
77 | CCOc1cccc(Nc2ccc([N+](=O)[O-])cn2)c1 | 11.8
78 | O=C(Nc1ccncc1)c1cc(-c2ccccn2)nc2ccccc12 | 8.94
79 | Cc1ccc(OCC(=O)OCC(=O)N2c3ccccc3CC2C)cc1C (stereo not shown) | 7.96
80 | COC(=O)C(Cc1ccccc1)NC(=O)c1ccc(NS(=O)(=O)c2ccc3[nH]c(=O)[nH]c3c2)cc1 (stereo not shown) | 16.5
81 | CC1(C)C=Cc2cc(-c3coc4cc(O)cc(O)c4c3=O)cc(O)c2O1 | -1.02
82 | CCOc1ccc(CCNC(=O)C2CCCN2C(=O)OCc2ccccc2)cc1OCC (stereo not shown) | 2.19
83 | O=C(COC(=O)C12CC3CC(CC(Br)(C3)C1)C2)N1CCOCC1 | 2.25
84 | Nn1c(SCc2ccccc2)nnc1C1CCCCC1 | 7.68
85 | Cc1ccccc1OCCNC(=O)CSc1ccc(C(F)(F)F)cc1[N+](=O)[O-] | 10.6
86 | COc1ccccc1C(CNC(=O)c1ccc(OCc2c(C)noc2C)cc1)N1CCCC1 (stereo not shown) | -19.9
87 | C[C@H](NCCc1ccc(O)cc1)[C@H](O)c1ccc(O)cc1.Cl | 6.27
88 | Cc1cc(=O)oc2cc(OCC(=O)OCc3nnc(-c4ccccc4)o3)ccc12 | 14.3
